In all, about 390,000 compounds went through this assay and about 17,000 (4.4%) were called active. Inconclusive means that the source gave no clear call. Such entries were picked first, then a sample of the others. The call rests on the fitted dose curve; in most records, active means well fitted inhibition curve with a large enough effect; inconclusive means small, poorly fitted or top-dose-only effect; inactive means no such curve, though single readings can be large or run the other way. Potencies of inconclusive entries are doubtful fits and often do not repeat.
biological target: Lysine-specific demethylase 4A (Homo sapiens) (UniProt O75164); assay: qHTS Assay for Inhibitors of JMJD2A-Tudor Domain; details: AlphaScreen JMJD2A-Tudor / H3K4me3 peptide binding; series mostly up to 114 µM; further: nearly all actives have a fitted effect of over 50% in size
Potency means the concentration at half of the fitted maximal effect; tags describe the fitted curve by direction and shape.

Chain of UniProt O75164 (O75164 whole entry, looked up, the tested form may be a part): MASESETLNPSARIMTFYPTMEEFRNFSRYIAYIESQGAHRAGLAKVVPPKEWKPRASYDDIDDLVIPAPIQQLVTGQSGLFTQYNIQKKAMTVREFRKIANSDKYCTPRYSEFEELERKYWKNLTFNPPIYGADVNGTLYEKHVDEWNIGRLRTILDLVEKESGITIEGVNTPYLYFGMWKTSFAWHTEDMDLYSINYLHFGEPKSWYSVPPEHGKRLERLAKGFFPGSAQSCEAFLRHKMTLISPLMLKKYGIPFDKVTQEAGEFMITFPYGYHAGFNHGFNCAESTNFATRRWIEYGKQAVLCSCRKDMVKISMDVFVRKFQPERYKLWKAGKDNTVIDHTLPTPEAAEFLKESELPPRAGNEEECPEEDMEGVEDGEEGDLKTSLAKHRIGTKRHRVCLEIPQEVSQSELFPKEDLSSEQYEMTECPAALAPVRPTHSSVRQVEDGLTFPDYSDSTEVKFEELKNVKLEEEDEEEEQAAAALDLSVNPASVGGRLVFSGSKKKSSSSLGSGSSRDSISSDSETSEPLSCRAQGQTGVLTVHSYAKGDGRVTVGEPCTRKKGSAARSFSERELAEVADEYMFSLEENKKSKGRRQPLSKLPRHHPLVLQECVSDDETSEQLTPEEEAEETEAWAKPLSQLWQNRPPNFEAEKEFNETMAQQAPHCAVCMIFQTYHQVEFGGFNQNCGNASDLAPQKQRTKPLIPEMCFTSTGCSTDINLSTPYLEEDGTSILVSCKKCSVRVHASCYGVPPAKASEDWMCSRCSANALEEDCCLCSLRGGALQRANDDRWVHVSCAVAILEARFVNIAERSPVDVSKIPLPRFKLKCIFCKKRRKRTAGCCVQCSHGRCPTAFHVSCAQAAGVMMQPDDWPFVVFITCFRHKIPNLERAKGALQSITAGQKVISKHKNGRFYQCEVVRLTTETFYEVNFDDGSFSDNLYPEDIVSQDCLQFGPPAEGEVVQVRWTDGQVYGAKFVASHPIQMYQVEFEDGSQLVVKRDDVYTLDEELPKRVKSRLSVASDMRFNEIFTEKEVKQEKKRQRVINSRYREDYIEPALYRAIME

| Structure (SMILES) | Potency |
| --- | --- |
| O=[N+]([O-])c1ccc(S(=O)(=O)NCC(c2cccnc2)N2CCc3ccccc32)cc1 (stereo not drawn) | inconclusive: 50.1 µM [inhibitor, partial curve] |
| CNc1ccc(S(=O)(=O)NCC(=O)NCCCc2ccccc2)cc1[N+](=O)[O-] | inconclusive: 50.1 µM [inhibitor, partial curve] |
| CN(C)/C=C\C(=C/C(=O)C(F)(F)F)Nc1ccccc1Oc1ccccc1 | inconclusive: 79.4 µM [inhibitor, partial curve] |
| Cc1ccc(NC(=O)CN2C(=O)S/C(=C\c3ccc(-c4cccc(C(=O)O)c4C)o3)C2=O)cc1C | active: 17.8 µM |
| OC1(Cc2cc(-c3ccccc3)no2)CCN(CCCc2ccccc2)CC1 | inactive |
| COc1ccccc1Cn1cc(C(=O)c2ccc(C)cc2)c(=O)c2cc(F)cc(F)c21 | inactive |
| CC1CCCN(CC(O)COc2ccc(-c3ccccc3)cc2)C1 (stereo not drawn) | inconclusive: 22.4 µM [inhibitor, partial curve] |
| CCCCCC/C=N/Nc1nnc(Cc2ccc(OC)c(OC)c2)c(=O)[nH]1 | active: 0.891 µM |
| O=C(CN(Cc1ccccc1)C1=NCCS1)c1ccc(Cl)cc1 | inactive |
| COc1cc(/C=N/NC(N)=O)ccc1OCC(=O)Nc1ccc(C)c(C)c1 | inconclusive: 39.8 µM [inhibitor, full curve] |
| COc1ccccc1NS(=O)(=O)CC12CCC(CC1=O)C2(C)C (stereo not drawn) | inactive |
| COc1ccc(C=C2C(=O)c3ccccc3C2=O)cc1O | inconclusive: 44.7 µM [inhibitor, partial curve] |
| CCN(CCCNC(=O)Cn1ncc2c([nH]c3ccc(C)cc32)c1=O)Cc1ccccc1 | inactive |
| O=C(CNc1ccc(Cl)cc1)NNC(=S)NCc1ccccc1 | inconclusive: 100 µM [inhibitor, partial curve] |
| Cc1nn(C(=O)c2cc([N+](=O)[O-])ccc2Cl)c(C)c1Br | inconclusive: 35.5 µM [inhibitor, partial curve] |
| CCN1C(=NCCOC)N[C@@H](c2cccc(C(F)(F)F)c2)C(C(=O)OC)=C1C | active: 15.8 µM |
| COc1cc(NC(=O)CC(c2cccs2)N2Cc3ccccc3C2=O)cc(OC)c1OC (stereo not drawn) | inactive |
| Cc1csc(SCC(=O)NC(=O)c2ccccc2)n1 | inactive |
| CCOC(=O)c1cc(C)n(CC2CCC(C(=O)Nc3cc(OC)cc(OC)c3)CC2)c1C (stereo not drawn) | inactive |
| Cc1cc(NS(=O)(=O)c2ccc(NC(=S)NC(=O)c3ccc(C(C)(C)C)cc3)cc2)no1 | inconclusive: 39.8 µM [inhibitor, partial curve] |
| CC(C)C[C@@H](CN1CCCC1CN1C(=S)NC[C@@H]1Cc1ccc(O)cc1)N1C[C@H](Cc2ccc(O)cc2)N(CC2CCCCCC2)C1=S (stereo partly drawn) | inconclusive: 35.5 µM [inhibitor, partial curve] |
| N#C/C(=C\c1ccc(C(=O)O)cc1)c1nc2sc3c(c2c(=O)[nH]1)CCCC3 | inconclusive: 100 µM [inhibitor, single point] |
| Cc1ccc(-n2nc(C(=O)O)c(O)cc2=O)cc1 | inconclusive: 39.8 µM [inhibitor, single point] |

| Structure (SMILES) | Potency |
| --- | --- |
| CCc1c(C)[nH]n(-c2nc(-c3cccc([N+](=O)[O-])c3)cs2)c1=O | inconclusive: 63.1 µM [inhibitor, partial curve] |
| Cc1ccccc1NS(=O)(=O)c1nnc(NC(=O)c2ccco2)s1 | inconclusive: 10 µM [inhibitor, full curve] |
| CCOC(=O)c1c(S(=O)(=O)NCC(=O)N(C)c2ccc(C)cc2)c(C)n(C)c1C | inactive |
| Cc1ccccc1OCc1ccc(-c2nc(C#N)c(N3CCC(C(N)=O)CC3)o2)o1 | inconclusive: 17.8 µM [inhibitor, full curve, poor fit] |
| CC(=O)c1ccc(N=Nc2ccc(C)cc2)cc1 | active: 7.94 µM |
| CN1CCN(NC(=O)c2cccs2)CC1 | inactive |
| Cc1ccc(N2CC(C)Cn3c2nc2c3c(=O)n(CC(=O)OCc3ccccc3)c(=O)n2C)cc1C (stereo not drawn) | inconclusive: 56.2 µM [inhibitor, partial curve, poor fit] |
| Cc1ccc(NC(=O)COC(=O)CCc2ccccc2)cc1S(=O)(=O)N1CCOCC1 | inactive |
| O=C(CSc1nnc(NC(=O)c2ccccc2F)s1)NCC1CCCO1 (stereo not drawn) | inconclusive: 89.1 µM [inhibitor, single point] |
| Cc1ccc(C(=O)Nc2ccc3[nH]c(=O)c(=O)[nH]c3c2)cc1 | inactive |
| O=[N+]([O-])c1ccc(NC(=S)N2CCOCC2)cc1 | inconclusive: 17.8 µM [inhibitor, partial curve] |
| CCOc1ccc(NC(=O)CN2CCN(C3c4ccccc4-c4ccccc43)CC2)cc1 | inconclusive: 20 µM [inhibitor, full curve] |
| CC(=O)N(C)c1ccc(NC(=O)N2CCOCC2)cc1 | inconclusive: 89.1 µM [inhibitor, single point] |
| CCS(=O)(=O)N1CCc2cc(C(=O)NCCc3ccc(OC)c(OC)c3)ccc21 | inactive |
| CCN1CCN(Cc2ccc(NC(=O)c3cc(NC(=O)c4cnn(-c5ccccc5)c4N)cc(OC)c3)cc2C(F)(F)F)CC1 | inconclusive: 39.8 µM [inhibitor, partial curve] |
| O=C(CSc1nnc2scc(-c3ccccc3)n12)Nc1nsc(-c2ccccc2)n1 | inconclusive: 79.4 µM [inhibitor, partial curve] |
| CC1([N+](=O)[O-])COC(C=Cc2ccccc2)OC1 (stereo not drawn) | inactive |
| CCn1cc(C(=O)NCCC(C)C)c(=O)c2cc(F)c(N3CCN(C(=O)c4ccco4)CC3)cc21 | inconclusive: 56.2 µM [inhibitor, partial curve] |
| COc1ccc(Cc2nnc(NCCO)[nH]c2=O)cc1OC | inconclusive: 10 µM [inhibitor, partial curve, poor fit] |
| CC(=O)C1=C(C)N2CCN=C2S1 | inactive |
| COc1cccc(CN2CCN(Cc3cc(OC)c(OC)c(OC)c3)CC2)c1OC | active: 7.94 µM |
| CN1CCN(c2cc3c(c4c2[nH]c2ccccc24)C(=O)CC(C)(C)C3)CC1 | inconclusive: 100 µM [inhibitor, partial curve, poor fit] |
| N=C1C(c2nc3ccccc3s2)=C(O)CN1NC(=O)c1c[nH]c2ccccc12 | inconclusive: 70.8 µM [inhibitor, single point] |

| Structure (SMILES) | Potency |
| --- | --- |
| COc1ccc(Cl)cc1NC(=O)CN(C)C(=O)c1ccc2c(c1)CC(c1ccccc1)OC2=O (stereo not drawn) | inconclusive: 39.8 µM [inhibitor, single point] |
| Cc1ccccc1Cn1c(CN2CCC(C(=O)NCCN(C)C)CC2)cc2ccccc21 | inconclusive: 50.1 µM [inhibitor, partial curve] |
| CCOC(=O)c1nc(-c2ccc(OC)c(OC)c2)no1 | inconclusive: 31.6 µM [inhibitor, single point] |
| O=C(COC(=O)c1c2c(nc3ccccc13)CCCC2)Nc1ccc2c(c1)OCO2 | inconclusive: 50.1 µM [inhibitor, partial curve] |
| Cc1ccc(CNC(=O)c2nnn(CC(=O)Nc3cccc(C)c3C)c2N)cc1 | inactive |
| COc1ccc(-c2cc(C(=O)N3CCN(c4ccccn4)CC3)c3ccccc3n2)cc1 | inconclusive: 39.8 µM [inhibitor, full curve] |
| CCCCNC(=O)c1cnn2c(C)c(Cc3c(F)cccc3Cl)c(C)nc12 | inactive |
| COc1ccc(C(=O)Nc2ccc(N3CCCC3)cc2)cc1OC | inconclusive: 44.7 µM [inhibitor, partial curve] |
| CCOc1ccc2c(c1)c(=O)c(S(=O)(=O)c1ccccc1)cn2CC(=O)Nc1ccccc1OC | inactive |
| c1ccc(C[n+]2csc3ccccc32)cc1 | inconclusive: 20 µM [inhibitor, full curve] |
| COc1ccc(C(=O)NC(=S)NCc2cccnc2)cc1[N+](=O)[O-] | inconclusive: 79.4 µM [inhibitor, partial curve] |
| CN1CCc2c(sc3nc(NN)n(Cc4ccccc4)c(=O)c23)C1 | inconclusive: 56.2 µM [inhibitor, partial curve] |
| Brc1ccc(-c2nc3ncccn3c2Nc2ccc3c(c2)OCCO3)o1 | inconclusive: 63.1 µM [inhibitor, partial curve, poor fit] |
| COc1cc(/C=N/Nc2cccc3cccnc23)cc(OC)c1O | inconclusive: 11.2 µM [inhibitor, full curve, poor fit] |
| CC1=C/C(=N\NC(=S)NCc2ccccc2)CC1 | inconclusive: 25.1 µM [inhibitor, partial curve] |
| O=C(CCN1C(=O)/C(=C\C=C\c2ccccc2)SC1=S)Nc1cccc(C(=O)O)c1 | active: 50.1 µM |
| CC1CC(C)(C)CC2(C1)NC(=O)N(CC(=O)NCc1ccccc1F)C2=O (stereo not drawn) | inactive |
| CCOc1ccc(N/C=C/C(=O)c2ccc3ccccc3c2)c([N+](=O)[O-])c1 | inconclusive: 7.08 µM [inhibitor, full curve] |
| COc1ccc(N2CC(C(=O)Nc3nc(-c4ccccc4)c(C(C)=O)s3)CC2=O)c(OC)c1 (stereo not drawn) | inconclusive: 39.8 µM [inhibitor, partial curve] |
| COc1c(C)cccc1C(=O)Nc1ccc(N2CCN(C(=O)c3ccccc3C)CC2)cc1 | inconclusive: 79.4 µM [inhibitor, partial curve] |
| CCOc1ccc(NC(=O)/C(C=Nc2ccccc2)=C(\C)O)cc1 | inconclusive: 20 µM [inhibitor, single point] |
| Cc1ccc(S(=O)(=O)NN2C(=O)/C(=C/c3ccc(C(=O)O)cc3)SC2=S)cc1 | inconclusive: 39.8 µM [inhibitor, partial curve] |
